{
  "source": "PubChem BioAssay AID652104",
  "about": "(National Center for Advancing Translational Sciences (NCATS), 2013)",
  "note": "Screen size: about 410,000 compounds; about 7,200 (1.8%) were called active. The shares of active, inactive and inconclusive entries below differ from those in the screen. The call rests on the fitted dose curve; in most records, active means well fitted activation curve with a large enough effect; inconclusive means small, poorly fitted or top-dose-only effect, or another doubt; inactive means no such curve, though single readings can be large or run the other way. Potencies of inconclusive entries are left out as doubtful fits.",
  "data": [
    {"assay": "qHTS of TDP-43 Inhibitors; further: nearly all actives have a fitted effect of over 50% in size; further: potency means the concentration at half of the fitted maximal effect; tags describe the fitted curve by direction and shape; on growth rescue (activation): % of control where 0% means no effect", "conditions": "TDP-43 expressing yeast growth rescue, BacTiter-Glo, 24 h; growth rescue (activation): at 46.1 µM (top of the series) unless noted", "method_in_brief": "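Luminescence from BacTiter-Glo reports growth of TDP-43-expressing yeast after 24 hr at 30 deg C with compound. Cells were raffinose-pregrown to mid-log, then seeded in galactose medium at OD600=0.02.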", "values": [
      {"compound": "CCOc1ccccc1N(C)C(=O)C1CCCN(c2ncnc3onc(-c4ccc(F)cc4)c23)C1", "note": "(configuration not stated)", "growth rescue (activation)": "inactive: 17.9%"},
      {"compound": "COc1ccc(NC(=O)c2cccc3c2C(=O)N(CC2CCCO2)C3)cc1OC", "note": "(configuration not stated)", "Potency": "inconclusive [activator, partial curve]"},
      {"compound": "O=[N+]([O-])c1cc(S(=O)(=O)Nc2ccc(Cl)cc2)ccc1N/N=C/c1ccncc1", "growth rescue (activation)": "inactive: -21.5%"},
      {"compound": "Cc1nn2c3c(cnc2c1-c1ccccc1)C(=O)CCC3", "Potency": "inconclusive [activator, partial curve, poor fit]"},
      {"compound": "COc1ccc(-c2noc(-c3ccc(NCc4ccccc4OC)c([N+](=O)[O-])c3)n2)cc1", "growth rescue (activation)": "inactive: 17.1%"},
      {"compound": "CCCSc1nc2c(cnn2-c2ccccc2)c(=O)n1N", "Potency": "inconclusive [activator, single point]"},
      {"compound": "CN1c2ccccc2-c2ccccc2S1(=O)=O", "Potency": "inconclusive [activator, partial curve]"},
      {"compound": "Cc1cccc(C)c1NC(=O)C(c1ccc(-c2ccccc2)cc1)n1c(=O)c(-c2cc3ccccc3[nH]2)nc2ccccc21", "note": "(configuration not stated)", "Potency": "inconclusive [activator, partial curve]"},
      {"compound": "O=C(NC(=S)N1CCCCC1)c1csc([N+](=O)[O-])c1", "Potency": "inconclusive [activator, single point]"},
      {"compound": "Cn1cccc1C(=O)NCCc1ccc(Cl)cc1", "Potency": "inconclusive [activator, full curve, poor fit]"},
      {"compound": "Cc1cccc(CSc2nc(N)c(C#N)c(-c3cccs3)c2C#N)c1", "Potency": "inconclusive [activator, partial curve]"},
      {"compound": "Cc1ccc(-c2nc(NC(=O)CSc3ncn[nH]3)ns2)cc1", "Potency": "inconclusive [activator, single point]"},
      {"compound": "O=C(CS(=O)(=O)c1cccc(Cl)c1)Nc1ccccc1Cl", "Potency": "inconclusive [activator, single point]"},
      {"compound": "COc1ccc(-c2cc(C(=O)N3CC(C)CC(C)C3)c3ccccc3n2)cc1", "note": "(configuration not stated)", "Potency": "inconclusive [activator, single point]"},
      {"compound": "COC(=O)Cn1c(C(=O)N(C)C)cc2c1C[C@H]1CN(C(=O)c3ccccc3)[C@@](Cc3ccc(F)cc3)(C(=O)OC)[C@@H]21", "Potency": "inconclusive [activator, full curve, poor fit]"},
      {"compound": "COc1cccc(-c2cc(C(=O)N3CCN(c4ccccc4OC)CC3)no2)c1", "Potency": "active: 22.4 µM"},
      {"compound": "Cc1ccc(OCCNC(=O)c2ccccc2O)cc1", "Potency": "inconclusive [activator, partial curve]"},
      {"compound": "CC(Cc1ccccc1)C(=O)Nc1ccc(Br)cc1", "note": "(configuration not stated)", "Potency": "inconclusive [activator, full curve]"},
      {"compound": "Cc1ccc(O)c(-c2cc(-c3ccccc3[N+](=O)[O-])[nH]n2)c1", "Potency": "inconclusive [activator, single point]"},
      {"compound": "O=[N+]([O-])CC(c1ccc(F)cc1)c1c[nH]c2ccccc12", "note": "(configuration not stated)", "Potency": "active: 17.8 µM"},
      {"compound": "CCOC(=O)c1c(C)[nH]c(C)c1S(=O)(=O)N1CCC(C(=O)N2CCN(c3cccc(C)c3C)CC2)CC1", "Potency": "inconclusive [activator, full curve, poor fit]"},
      {"compound": "COc1ccc(-n2c(C)cc(C(=O)NC3CCCCC3)c2C)cc1", "Potency": "inconclusive [activator, single point]"},
      {"compound": "CC1(C(=O)Nc2cnc3ccccc3c2)CCN1C(=O)CC(c1ccccc1)c1ccccc1", "note": "(configuration not stated)", "Potency": "active: 17.8 µM"},
      {"compound": "O=C(Nc1ccc(F)cc1)c1ccc(Cn2nc(N3CCN(c4ccccc4)CC3)ccc2=O)o1", "Potency": "active: 22.4 µM"},
      {"compound": "COC(=O)c1ccc(NC(=O)CCc2c(C)nn(-c3ccc(N4CCOCC4)nn3)c2C)cc1", "growth rescue (activation)": "inactive: 24.1%"},
      {"compound": "CC[C@]12C(=O)N(C)C[C@H]([C@@H]3C(=O)N(C)C(=O)[C@@H]31)N2C(=O)c1ccccc1", "Potency": "inconclusive [activator, single point]"},
      {"compound": "O=C(COC(=O)c1cnccn1)Nc1cccc(F)c1", "growth rescue (activation)": "inactive: 11.2%"},
      {"compound": "CCc1cccc(NC(=O)Cn2c(=O)c(C(F)(F)F)nc3ccccc32)c1", "growth rescue (activation)": "inactive: 15.6%"},
      {"compound": "CC(C)C[C@H]1COCCS(=O)(=O)N1Cc1cccc(C(F)(F)F)c1", "Potency": "active: 14.1 µM"},
      {"compound": "CCC(C)[C@H]1CNC(=O)C(=O)N1CC1CCCCC1", "note": "(some centres not stated)", "growth rescue (activation)": "inconclusive: 31.7% [activator]"},
      {"compound": "Cc1ccc(Nc2ncc3c(n2)CC(C)CC3=O)c(C)c1", "note": "(configuration not stated)", "Potency": "inconclusive [activator, partial curve]"},
      {"compound": "O=C(CSc1n[nH]c(-c2ccccc2)n1)N1CCCC1", "growth rescue (activation)": "inactive: -1.82%"},
      {"compound": "Brc1ccc2ncnc(Nc3cccc4ccccc34)c2c1", "Potency": "inconclusive [activator, single point]"},
      {"compound": "CCC(C)(C)n1nnnc1C(c1ccc(O)c(OC)c1)N1CCN(c2nc3ccccc3s2)CC1", "note": "(configuration not stated)", "Potency": "active: 20 µM"},
      {"compound": "CCC(NC(=O)Nc1cc(Cl)ccc1OC)c1c(-n2cccc2)sc2c1CCN(C)C2", "note": "(configuration not stated)", "growth rescue (activation)": "inactive: 6.2%"},
      {"compound": "CCc1cccc(NC(=O)COC(=O)/C=C/c2cccs2)c1", "Potency": "inconclusive [activator, partial curve]"},
      {"compound": "CCc1ccc(NC(=O)c2cc(CC(C)C)on2)cc1", "Potency": "inconclusive [activator, full curve, poor fit]"},
      {"compound": "CCOc1ccc(NC(=O)C2CC(C)=C(C)CC2C(=O)O)cc1", "note": "(configuration not stated)", "growth rescue (activation)": "inactive: -7.25%"},
      {"compound": "C=CCNc1nc(-c2ccc3c(c2)OCCO3)cs1", "growth rescue (activation)": "inactive: 22.9%"},
      {"compound": "Nc1c(Cl)cc(-c2csc(N3CCCC3c3nc4cc(Cl)c(Cl)cc4n3CCCO)n2)cc1Cl", "note": "(configuration not stated)", "Potency": "inconclusive [activator, partial curve]"},
      {"compound": "CC(c1ccccc1C(=O)O)c1cc(F)cc2ccccc12", "note": "(configuration not stated)", "growth rescue (activation)": "inconclusive: -93.7% [activator]"},
      {"compound": "Cc1nc(N2CCN(S(=O)(=O)c3ccccc3C#N)CC2)c2c(-c3cccs3)csc2n1", "growth rescue (activation)": "inactive: 7.41%"},
      {"compound": "Cc1cc(N(C)Cc2ccccc2)n2nc(-c3ccc(C(C)(C)C)cc3)nc2n1", "Potency": "active: 15.8 µM"},
      {"compound": "Cc1ncc([N+](=O)[O-])n1CCOC(=O)c1ccc(Br)cc1", "Potency": "inconclusive [activator, partial curve]"},
      {"compound": "O=C(c1ccccc1CCc1ccccc1)N1CCN(c2ccccn2)CC1", "growth rescue (activation)": "inactive: -0.593%"},
      {"compound": "O=C(NCc1ccccc1F)c1ccc2c(c1)OCCO2", "Potency": "active: 14.1 µM"},
      {"compound": "CCCCNC(=O)c1cccc(-n2cnc3cccnc32)c1C", "growth rescue (activation)": "inactive: 9.63%"},
      {"compound": "CCOC(=O)CSc1nc2ccc(C)cc2[nH]1", "Potency": "inconclusive [activator, full curve]"},
      {"compound": "Cc1cc(C(=O)N/N=C/C=C/c2ccccc2)n[nH]1", "growth rescue (activation)": "inactive: 1.47%"},
      {"compound": "O=C(c1ccc(Cl)cc1)c1cc([N+](=O)[O-])ccc1N1CCOCC1", "Potency": "inconclusive [activator, single point]"},
      {"compound": "COC(=O)CSc1nc2cc(Cl)ccc2c(=O)n1C1CCCC1", "Potency": "inconclusive [activator, partial curve]"},
      {"compound": "Brc1ccc(-c2ccc(/C=N/Nc3nc(N4CCOCC4)nc(N4CCOCC4)n3)o2)cc1", "growth rescue (activation)": "inactive: -25.6% [at 1.82 µM]"},
      {"compound": "CC1Cc2nc(SCC(=O)Nc3ccc(F)cc3F)n(C)c(=O)c2S1", "note": "(configuration not stated)", "Potency": "inconclusive [activator, single point]"},
      {"compound": "O=C(Nc1ccc(C(=O)N2CCN(c3ccc(Cl)cc3)CC2)cc1)C1=CSCCO1", "growth rescue (activation)": "inactive: -11.8%"},
      {"compound": "O=C(CCN1C(=O)/C(=C/c2ccccc2)SC1=S)N1CCCCCC1", "Potency": "inconclusive [activator, partial curve]"},
      {"compound": "Cc1ccc2c(c1)N(S(=O)(=O)c1ccc(CN3C(=O)c4cccnc4C3=O)cc1)CCO2", "growth rescue (activation)": "inactive: -9.26%"},
      {"compound": "COc1ccc(-n2ncc(S(=O)(=O)c3ccccc3)c2-c2ccc(Cl)cc2)cc1", "Potency": "inconclusive [activator, single point]"},
      {"compound": "Cc1ccc2c(c1)c(=O)c(C(=O)c1ccccc1)cn2Cc1ccccc1F", "Potency": "inconclusive [activator, single point]"},
      {"compound": "COc1ccc(NC(=O)CC2C(=O)N(c3ccccc3)C(=O)N2CCC2=CCCCC2)cc1", "note": "(configuration not stated)", "growth rescue (activation)": "inactive: -0.807%"},
      {"compound": "CCCCN(C)C(=O)c1cn(CC)c2ccc(S(=O)(=O)N(C)C)cc2c1=O", "Potency": "inconclusive [activator, partial curve]"},
      {"compound": "CC1SCC(NC(=O)c2ccc(Cl)cc2)CS1", "note": "(configuration not stated)", "Potency": "inconclusive [activator, partial curve]"},
      {"compound": "Cc1c(C(=O)OC2CCCC2C)[nH]c2c1C(=O)CCC2", "note": "(configuration not stated)", "Potency": "active: 20 µM"},
      {"compound": "CCOc1ccccc1-c1noc(CCCC(=O)Nc2cccc(C(F)(F)F)c2)n1", "Potency": "inconclusive [activator, single point]"},
      {"compound": "Cc1cc2nn(-c3ccccc3)nc2cc1NC(=O)c1cccs1", "growth rescue (activation)": "inactive: -10.3%"},
      {"compound": "CCOC(=O)Cn1cc(C(=O)OC)c2ccccc21", "Potency": "inconclusive [activator, partial curve]"},
      {"compound": "CCOc1ccccc1NC(=O)c1ccc(C(=O)Nc2ccccc2OCC)nc1", "Potency": "inconclusive [activator, full curve]"},
      {"compound": "COC(=O)c1ccc(C2C=C(c3ccc(Cl)cc3)Nc3nc4ccccc4n32)cc1", "note": "(configuration not stated)", "Potency": "active: 10 µM"},
      {"compound": "Cc1ccc(-c2noc(C3CCCN(C(=O)c4c(F)cccc4F)C3)n2)cc1", "note": "(configuration not stated)", "growth rescue (activation)": "inactive: -6.96%"},
      {"compound": "O=C(NCc1ccc2c(c1)OCO2)c1ccc(CSCc2ccccc2Cl)o1", "Potency": "inconclusive [activator, single point]"},
      {"compound": "COc1ccc(C)cc1NC(=O)Nc1cccc(C)c1", "Potency": "inconclusive [activator, partial curve]"},
      {"compound": "CCOc1ccc(NC(=S)NCc2ccc3c(c2)OCO3)cc1", "Potency": "inconclusive [activator, single point]"},
      {"compound": "COc1ccc(/C=N\\NC(=O)c2ccccc2OC)cc1COc1c(F)c(F)c(F)c(F)c1F", "Potency": "inconclusive [activator, single point]"}
    ]}
  ]
}
